# In PubChem BioAssay (NCI):
#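 Following 48 hours of exposure in 96-well plates, responses at five concentrations were used to interpolate endpoints linearly. Here, GI50 denotes the concentration required for 50% inhibition of growth.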 Some entries of the source have several records that differ or are many. Only these are listed. An entry can have further records. For some of these results: Records of one sample usually come from different ranges of test concentrations, which the source does not state; a value can be the end of its range. Marks in square brackets tell the records apart. The letters are not those of the source and start again with each entry. For some of these results: The records of an entry are repeats across runs, samples, wells, individuals or studies.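 TGI: total growth inhibition.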
# Key:
# Assay in all cases: NCI-60 cell line screen, 48 h
# [1] = system: 786-0 renal
# [2] = system: A498 renal
# [3] = system: A549 NSCLC
# [4] = system: ACHN renal
# [5] = system: CAKI-1 renal
# [6] = system: CCRF-CEM leukemia
# [7] = system: COLO 205 colon
# [8] = system: DLD-1 colon
# [9] = system: DMS 114 small cell lung
# [10] = system: DMS 273 small cell lung
# [11] = system: EKVX NSCLC
# [12] = system: HCC-2998 colon
# [13] = system: HCT-116 colon
# [14] = system: HCT-15 colon
# [15] = system: HL-60(TB) leukemia
# [16] = system: HOP-18 NSCLC
# [17] = system: HOP-62 NSCLC
# [18] = system: HOP-92 NSCLC
# [19] = system: HT29 colon
# [20] = system: IGROV1 ovarian
# [21] = system: K-562 leukemia
# [22] = system: KM12 colon
# [23] = system: LOX IMVI melanoma
# [24] = system: LXFL 529 NSCLC
# [25] = system: M14 melanoma
# [26] = system: M19-MEL melanoma
# [27] = system: MALME-3M melanoma
# [28] = system: MOLT-4 leukemia
# [29] = system: NCI-H226 lung
# [30] = system: NCI-H23 lung
# [31] = system: NCI-H460 lung
# [32] = system: OVCAR-3 ovarian
# [33] = system: OVCAR-4 ovarian
# [34] = system: OVCAR-5 ovarian
# [35] = system: OVCAR-8 ovarian
# [36] = system: RXF 393 renal
# [37] = system: SF-268 CNS
# [38] = system: SF-295 CNS
# [39] = system: SF-539 CNS
# [40] = system: SK-MEL-2 melanoma
# [41] = system: SK-MEL-28 melanoma
# [42] = system: SK-MEL-5 melanoma
# [43] = system: SK-OV-3 ovarian
# [44] = system: SN12C renal
# [45] = system: SNB-19 CNS
# [46] = system: SNB-75 CNS
# [47] = system: SNB-78 CNS
# [48] = system: SR leukemia
# [49] = system: SW-620 colon
# [50] = system: TK-10 renal
# [51] = system: U251 CNS
# [52] = system: UACC-257 melanoma
# [53] = system: UACC-62 melanoma
# [54] = system: UO-31 renal
smiles,measurement,setting,value
CCN(CC)CCN1C(=O)c2c(c3c4cccc(Cl)c4n(C4OC(CO)C(OC)C(O)C4O)c3c3[nH]c4c(Cl)cccc4c23)C1=O (stereo unspecified),TGI,[1],"3.32 nM [sample A, 1 test] and 782 nM [sample A, mean of 2 tests] and 213 nM [sample B, 1 test]"
same,GI50,[2],"< 0.1 nM [sample A, 1 test] and 119 nM [sample A, mean of 2 tests] and < 34.9 nM [sample B, mean of 2 tests]"
same,TGI,[2],"2.2 nM [sample A, 1 test] and 276 nM [sample A, mean of 2 tests] and 168 nM [sample B, mean of 2 tests]"
same,TGI,[3],"1.06 nM [sample A, 1 test] and 365 nM [sample A, mean of 2 tests] and 1.3 µM [sample B, 1 test]"
same,TGI,[4],"4.12 nM [sample A, 1 test] and 241 nM [sample A, mean of 2 tests] and 2.18 µM [sample B, 1 test]"
same,GI50,[5],"0.1 nM [sample A, 1 test] and < 31 nM [sample A, mean of 2 tests] and 84.5 nM [sample B, mean of 2 tests]"
same,TGI,[5],"0.813 nM [sample A, 1 test] and 386 nM [sample A, mean of 2 tests] and 1.31 µM [sample B, mean of 2 tests]"
same,TGI,[6],0.719 nM and 194 nM
same,GI50,[7],"< 0.1 nM [sample A, 1 test] and 27.9 nM [sample A, mean of 2 tests] and < 10 nM [sample B, 1 test]"
same,TGI,[7],"1.63 nM [sample A, 1 test] and 2.03 µM [sample A, mean of 2 tests] and > 100 µM [sample B, 1 test]"
same,TGI,[8],3.73 nM and 753 nM
same,TGI,[9],1.52 nM and 667 nM
same,TGI,[10],1.4 nM and 167 nM
same,GI50,[11],"1.27 nM [sample A, 1 test] and 157 nM [sample A, mean of 2 tests] and < 41.6 nM [sample B, mean of 2 tests]"
same,TGI,[11],"4.26 nM [sample A, 1 test] and 583 nM [sample A, mean of 2 tests] and 379 nM [sample B, mean of 2 tests]"
same,TGI,[12],"1.6 nM [sample A, 1 test] and 302 nM [sample A, mean of 2 tests] and < 23.7 nM [sample B, mean of 2 tests]"
same,TGI,[13],"1.4 nM, 349 nM [sample A] and 483 nM [sample B]"
same,GI50,[14],"0.718 nM [sample A, 1 test] and 75.3 nM [sample B, 1 test]"
same,TGI,[14],"5.44 nM, 812 nM [sample A] and 38.9 µM [sample B]"
same,TGI,[15],"770 nM [sample A, mean of 2 tests] and > 100 µM [sample B, 1 test]"
same,TGI,[16],4.65 nM and 524 nM
same,TGI,[17],"2.18 nM [sample A, 1 test] and 99.5 nM [sample A, mean of 2 tests] and 330 nM [sample B, mean of 2 tests]"
same,TGI,[18],"6.03 nM, 309 nM [sample A] and 628 nM [sample B]"
same,TGI,[19],12.5 nM and 481 nM
same,GI50,[20],"< 0.1 nM [sample A, 1 test] and 39.5 nM [sample A, mean of 2 tests] and < 10 nM [sample B, mean of 2 tests]"
same,TGI,[20],1.91 nM [1 test] and 656 nM [mean of 2 tests]
same,GI50,[21],< 0.1 nM and 46.2 nM
same,TGI,[21],3.35 nM and 1.2 µM
same,TGI,[22],"4.36 nM [sample A, 1 test] and 638 nM [sample A, mean of 2 tests] and 432 nM [sample B, mean of 2 tests]"
same,TGI,[23],1.69 nM [1 test] and 48.4 nM [mean of 2 tests]
same,TGI,[24],3.84 nM and 504 nM
same,TGI,[25],"3.02 nM [sample A, 1 test] and 270 nM [sample A, mean of 2 tests] and 165 nM [sample B, mean of 2 tests]"
same,TGI,[26],1.54 nM and 453 nM
same,GI50,[27],"0.232 nM [sample A, 1 test] and 82.8 nM [sample A, mean of 2 tests] and < 10 nM [sample B, 1 test]"
same,TGI,[27],"2.49 nM [sample A, 1 test] and 841 nM [sample A, mean of 2 tests] and 39.4 nM [sample B, 1 test]"
same,TGI,[28],"0.336 nM, 152 nM [sample A] and > 100 µM [sample B]"
same,GI50,[29],"0.256 nM, > 100 µM [sample A, 1 test] and 19.9 nM [sample B, 1 test]"
same,TGI,[29],"2.38 nM, > 100 µM [sample A, 1 test] and 220 nM [sample B, 1 test]"
same,TGI,[30],"2.52 nM [sample A, 1 test] and 236 nM [sample A, mean of 2 tests] and 135 nM [sample B, mean of 2 tests]"
same,TGI,[31],0.67 nM and 126 nM
same,GI50,[32],"0.189 nM [sample A, 1 test] and 47.9 nM [sample A, mean of 2 tests] and < 10 nM [sample B, 1 test]"
same,TGI,[32],"2.47 nM [sample A, 1 test] and 466 nM [sample A, mean of 2 tests] and 436 nM [sample B, 1 test]"
same,GI50,[33],"0.122 nM [sample A, 1 test] and 76.5 nM [sample A, mean of 2 tests] and 11.6 nM [sample B, mean of 2 tests]"
same,TGI,[33],"2.4 nM [sample A, 1 test] and 478 nM [sample A, mean of 2 tests] and 257 nM [sample B, mean of 2 tests]"
same,GI50,[34],"0.925 nM, > 100 µM [sample A, 1 test] and < 37.5 nM [sample B, mean of 2 tests]"
same,TGI,[34],"11.8 nM, > 100 µM [sample A, 1 test] and 628 nM [sample B, mean of 2 tests]"
same,TGI,[35],4.24 nM [1 test] and 420 nM [mean of 2 tests]
same,TGI,[36],"< 0.1 nM [sample A, 1 test] and 144 nM [sample A, mean of 2 tests] and 130 nM [sample B, 1 test]"
same,TGI,[37],"2.86 nM, 731 nM [sample A, 1 test] and 292 nM [sample B, 1 test]"
same,TGI,[38],"7.52 nM, 268 nM [sample A] and 506 nM [sample B]"
same,GI50,[39],"0.183 nM [sample A, 1 test] and 37.7 nM [sample A, mean of 2 tests] and < 10 nM [sample B, 1 test]"
same,TGI,[39],1.82 nM [1 test] and 256 nM [mean of 2 tests]
same,TGI,[40],"2.81 nM, 370 nM [sample A] and 206 nM [sample B]"
same,GI50,[41],"0.487 nM [sample A, 1 test] and 76.2 nM [sample A, mean of 2 tests] and 52.7 nM [sample B, 1 test]"
same,TGI,[41],"5.74 nM [sample A, 1 test] and 827 nM [sample A, mean of 2 tests] and 470 nM [sample B, 1 test]"
same,GI50,[42],"0.384 nM [sample A, 1 test] and 54.1 nM [sample A, mean of 2 tests] and < 13.9 nM [sample B, mean of 2 tests]"
same,TGI,[42],"2.69 nM [sample A, 1 test] and 630 nM [sample A, mean of 2 tests] and 157 nM [sample B, mean of 2 tests]"
same,GI50,[43],"0.147 nM, 56.4 nM [sample A, 1 test] and 1.1 µM [sample B, mean of 2 tests]"
same,TGI,[43],"2.98 nM, 766 nM [sample A, 1 test] and > 100 µM [sample B, mean of 2 tests]"
same,GI50,[44],"< 0.1 nM, 62.4 nM [sample A, 1 test] and 10.3 nM [sample B, 1 test]"
same,TGI,[44],"3.58 nM, 965 nM [sample A, 1 test] and 1.45 µM [sample B, 1 test]"
same,GI50,[45],"< 0.1 nM [sample A, 1 test] and 354 nM [sample B, 1 test]"
same,TGI,[45],"< 0.1 nM, 1.69 µM [sample A, 1 test] and > 100 µM [sample B, 1 test]"
same,GI50,[46],0.174 nM [1 test] and 37.9 nM [mean of 2 tests]
same,TGI,[46],3.08 nM [1 test] and 367 nM [mean of 2 tests]
same,TGI,[47],7.56 nM and 1.21 µM
same,TGI,[48],< 0.1 nM and 28.2 nM
same,TGI,[49],"2.94 nM [sample A, 1 test] and 508 nM [sample A, mean of 2 tests] and 225 nM [sample B, 1 test]"
same,GI50,[50],"1.73 nM [sample A, 1 test] and 87 nM [sample A, mean of 2 tests] and < 10 nM [sample B, mean of 2 tests]"
same,TGI,[50],"16.3 nM [sample A, 1 test] and 1.33 µM [sample A, mean of 2 tests] and 73.6 nM [sample B, mean of 2 tests]"
same,TGI,[51],"9.4 nM [sample A, 1 test] and 608 nM [sample A, mean of 2 tests] and 4.44 µM [sample B, 1 test]"
same,GI50,[52],"1.32 nM [sample A, 1 test] and 128 nM [sample A, mean of 2 tests] and 84.9 nM [sample B, 1 test]"
same,TGI,[52],"8.09 nM [sample A, 1 test] and 705 nM [sample A, mean of 2 tests] and 674 nM [sample B, 1 test]"
same,TGI,[53],"0.484 nM [sample A, 1 test] and 177 nM [sample A, mean of 2 tests] and 78.4 nM [sample B, mean of 2 tests]"
same,GI50,[54],"0.832 nM, 179 nM [sample A, 1 test] and 23.4 nM [sample B, 1 test]"
same,TGI,[54],"3.15 nM, 560 nM [sample A, 1 test] and 162 nM [sample B, 1 test]"
